Results on 57 compounds are retold here after PMC4336329 (PLoS ONE, 2015).

About 2,200 (0.71%) of roughly 310,000 compounds showed an effect of 50% or more. Effects have a minus sign here. This is one part of the list.

Chain of human ether-à-go-go-related gene (hERG) potassium channel (Q12809 whole entry, looked up): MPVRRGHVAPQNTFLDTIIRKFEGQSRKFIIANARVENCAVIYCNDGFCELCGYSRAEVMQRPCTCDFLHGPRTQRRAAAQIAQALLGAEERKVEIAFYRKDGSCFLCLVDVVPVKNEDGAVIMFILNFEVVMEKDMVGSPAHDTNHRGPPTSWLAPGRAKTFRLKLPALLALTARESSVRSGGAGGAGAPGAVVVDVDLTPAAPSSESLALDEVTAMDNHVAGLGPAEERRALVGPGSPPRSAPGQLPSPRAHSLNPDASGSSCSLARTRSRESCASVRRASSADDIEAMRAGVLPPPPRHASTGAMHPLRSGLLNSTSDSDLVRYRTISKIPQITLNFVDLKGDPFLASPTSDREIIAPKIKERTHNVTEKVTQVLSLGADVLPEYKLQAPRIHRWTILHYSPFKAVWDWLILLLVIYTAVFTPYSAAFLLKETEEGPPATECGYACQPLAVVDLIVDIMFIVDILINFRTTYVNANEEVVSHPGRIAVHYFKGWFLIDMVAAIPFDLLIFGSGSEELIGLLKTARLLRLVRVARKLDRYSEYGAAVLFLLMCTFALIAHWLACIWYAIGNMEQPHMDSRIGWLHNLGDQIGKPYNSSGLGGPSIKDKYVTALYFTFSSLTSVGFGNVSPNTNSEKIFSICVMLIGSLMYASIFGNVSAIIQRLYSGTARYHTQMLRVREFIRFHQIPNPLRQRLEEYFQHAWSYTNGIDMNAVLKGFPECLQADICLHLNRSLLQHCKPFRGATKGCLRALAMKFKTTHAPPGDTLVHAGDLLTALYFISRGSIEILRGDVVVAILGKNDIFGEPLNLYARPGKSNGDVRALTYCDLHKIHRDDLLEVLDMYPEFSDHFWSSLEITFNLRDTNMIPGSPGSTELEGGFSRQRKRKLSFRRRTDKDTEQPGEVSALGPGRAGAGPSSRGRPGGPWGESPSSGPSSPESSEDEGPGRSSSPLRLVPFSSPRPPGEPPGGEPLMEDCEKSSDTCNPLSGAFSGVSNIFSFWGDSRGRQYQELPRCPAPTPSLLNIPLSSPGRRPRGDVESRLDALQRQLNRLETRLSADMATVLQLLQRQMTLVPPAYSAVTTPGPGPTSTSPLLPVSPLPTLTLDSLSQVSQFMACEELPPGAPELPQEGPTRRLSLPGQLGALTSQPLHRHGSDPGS

The assay addresses human ether-à-go-go-related gene (hERG) potassium channel (human, UniProt Q12809). In words: primary screen, population patch clamp on CHO cells stably expressing hERG.
Regarding `Cc1ccc(C(=O)Nc2ccc(C(=O)N3CCCCC3)cc2)o1`, the “hERG current change (%, negative = inhibition) at 1uM” value stood at 12.4%.
The result for `Cc1ccc(S(=O)(=O)N2CCN(C(=O)COC(=O)CCOc3ccccc3C)CC2)cc1` reads -0.62%.
The result for `COc1ccccc1C(=O)Nc1ccnn1C1CCN(C/C=C/c2ccc(F)cc2)CC1` reads -86.9%.
The result for `Cc1ccc(S(=O)(=O)N2CCOCC2)cc1C(=O)OCC(=O)N(Cc1ccccc1)C(C)C` reads 4.55%; that for `C/C(=N\NC(=O)c1ccccc1O)c1ccc(Br)s1`, 11.4%.
As for `O=C(O)C(=O)O.c1ccc(-c2ccccc2OCCCN2CCCC2)cc1`, the “hERG current change (%, negative = inhibition) at 1uM” value is -49.4%.
For `CC1(C)Cc2ccccc2-c2nc3n(c(=O)c21)CCS3` the value was 8%; for `O=C(CCc1ccccc1Cl)Nc1cc2c(cc1C(=O)O)OCCCO2`, 14.7%; for `COc1ccc(-c2cc(C(=O)Nc3cc(C)nn3-c3ccccc3)no2)cc1`, -3.81%.
For `O=C(CSc1nc2cc(Cl)ccc2c(=O)n1Cc1ccco1)Nc1ccc(S(=O)(=O)N2CCOCC2)cc1` the value was 13.3%.
For `COc1cccc2cc(CC(=O)c3ccc(C)cc3C)c(=O)oc12` the value was 18.4%; for `O=C(CSc1cn(CC(=O)N2CCCCC2)c2ccccc12)NCC1CCCO1` (stereo not drawn), 3.5%; for `Cc1ccc(Cc2c(C)nc3nc(SCC(=O)NCc4ccco4)nn3c2C)cc1`, 1.97%.
As for `COc1ccc(CNC(=O)C2CCN(C(=O)c3ccco3)CC2)cc1`, the “hERG current change (%, negative = inhibition) at 1uM” value was found to be 9.13%.
The result for `CC1(C)Cc2c(sc(NC(=O)c3ccccc3Cl)c2C(=O)O)CO1` reads 11.3%.
For `O=C(O)C(=O)O.c1cc2c(cc1CCNC1CCCCCC1)OCO2` the value was 3.23%.
For `CCCCn1c(SCC(=O)N2CCOCC2)nnc1-c1cccs1` the value was 9.56%.
Regarding `O=[N+]([O-])c1ccc2c(c1)nnn2-c1ccccc1`, the “hERG current change (%, negative = inhibition) at 1uM” value worked out at 12.8%.
For `CCOC(=O)c1snc(-c2ccc(F)cc2)c1N` the value was 9.39%.
In the case of `CC1CCCCC1NC(=O)CSc1nnc(COc2ccc(Cl)cc2)o1` (stereo not drawn), the “hERG current change (%, negative = inhibition) at 1uM” value came out at 9.91%.
`COc1cc(OC)c(NC(=O)Cc2cccs2)cc1Cl`: the “hERG current change (%, negative = inhibition) at 1uM” value amounted to 15.5%.
The result for `Cc1ccc(C)c(NC(=O)CN(C)C(=O)c2ccc(S(=O)(=O)N(C)c3ccccc3)cc2)c1` reads 4.04%.
The result for `COc1ccccc1N1C(=NC(=O)C2CCCCC2)SC2CS(=O)(=O)CC21` (stereo not drawn) reads -1.61%.
For the compound `Fc1cccc(CNCCc2c[nH]c3ccccc23)c1.O=C(O)C(=O)O`, the “hERG current change (%, negative = inhibition) at 1uM” value worked out at 10%.
For `O=C(Nc1ccccc1O)c1nc(Cl)ccc1Cl` the value was 13.8%.
The result for `O=C(O)CNC(=O)CC1S/C(=N/N=C2\CSC(=O)N2)NC1=O` (stereo not drawn) reads 4.74%.
Take `Nc1nc(-c2ccc(Oc3ccccc3)cc2)cs1`: the “hERG current change (%, negative = inhibition) at 1uM” value was 5.75%.
Take `CSCCC(NC(=O)c1cccc(S(=O)(=O)N2CCOCC2)c1)C(=O)Nc1ccc(F)cc1` (stereo not drawn): the “hERG current change (%, negative = inhibition) at 1uM” value was -0.571%.
For `Cc1ccc2c(COC(=O)c3ccccc3Br)cc(=O)oc2c1`, the “hERG current change (%, negative = inhibition) at 1uM” value turned out to be 16%.
For `COCCNC(=O)C(=O)Nc1cc2c3c(c1)C(C)C(=O)N3CCC2` (stereo not drawn) the value was 16.6%.
For `COC(=O)C1=C(N)OC2=C(C(=O)CC(C)(C)C2)C1c1ccccc1OC` (stereo not drawn) the value was 7.24%.
As for `COc1ccc(/C=N\NC(=O)c2ccc(=O)[nH]n2)cc1O`, the “hERG current change (%, negative = inhibition) at 1uM” value is on record as 16.7%.
`O=C(NCc1ccccc1)C1CC2CCCC(C1)C2=O` (stereo not drawn): the “hERG current change (%, negative = inhibition) at 1uM” value is 9.84%.
As for `CCOC(=O)CSc1nnc([C@@H](NC(=O)OC(C)(C)C)C(C)C)o1`, the “hERG current change (%, negative = inhibition) at 1uM” value was 16.5%.
Consider `CCNc1nc(NC#N)nc(SCC(=O)OCC)n1`, for which the “hERG current change (%, negative = inhibition) at 1uM” value was found to be 7.19%.
Take `O=C(/C=C/c1ccc(Cl)cc1)N1CCN(Cc2ccccc2)CC1`: the “hERG current change (%, negative = inhibition) at 1uM” value was -12.8%.
Turning to `CCOc1ccc(CSCCNC(=S)Nc2ccccc2)cc1`, the “hERG current change (%, negative = inhibition) at 1uM” value is on record as -3.73%.
For `CC(=NCCCN1CCOCC1)c1c(O)n(Cc2ccccc2)c(=O)[nH]c1=O` the value was -4.14%; for `CCN(CC)CCOCCOc1ccc(Cl)c2ccccc12`, 0.302%; for `COc1ccc(C(=O)N2CCN(C)C(=O)[C@@H]2C)cc1OC1CCN(C(C)C)CC1`, 3.72%.
For `COc1cccc(CN2CCC(C(=O)N3CCC(C)CC3)CC2)c1.O=C(O)C(=O)O` the value was 10.5%; for `CCc1cccc(NS(=O)(=O)c2ccc3c(c2)oc(=O)n3C)c1`, 6.52%; for `CC(=O)c1c(C)[nH]c(C(=O)OCC(=O)C(C)(C)C)c1C`, 1.8%.
The result for `COC(=O)c1ccccc1NC(=O)C1CC(c2ccccc2O)=NO1` (stereo not drawn) reads 10.4%; that for `Cc1ccc(C(=O)N2CCN(c3ccc([N+](=O)[O-])c(NCc4ccco4)c3)CC2)cc1`, -5.23%; that for `COc1ccc(S(=O)(=O)Nc2ccc3c(c2)OCO3)cc1C`, 0.107%.
With `CS(=O)(=O)c1ccc2c(c1)SC1=NC(=O)/C(=C/c3ccco3)C(=N)N12`, the “hERG current change (%, negative = inhibition) at 1uM” value is listed as 17.5%.
On to `Cc1cc(C)cc(NC(=O)CCc2c(C)nn(-c3ccc(N4CCOCC4)nn3)c2C)c1`, for which the “hERG current change (%, negative = inhibition) at 1uM” value is given as 9.8%.
The result for `c1ccc(Oc2cccc3cccnc23)nc1` reads 10.7%.
Take `S=C(Nc1ccc2c(c1)OCO2)N1CCN(Cc2ccco2)CC1`: the “hERG current change (%, negative = inhibition) at 1uM” value is 14.1%.
For the compound `O=C(O)CN1C(=O)/C(=C\c2cn(CC(=O)N3CCOCC3)c3ccccc23)SC1=S`, the “hERG current change (%, negative = inhibition) at 1uM” value amounted to 14.1%.
The result for `Cc1nn(CC(=O)NCCc2ccccc2)c(=O)c2cc3occc3n12` reads 8.76%; that for `COc1cc(NC(=O)C2CCCCC2)c(OC)cc1NC(=O)CCC(=O)NCc1ccco1`, 0.466%; that for `COC(=O)[C@H](CC(C)C)NS(=O)(=O)N(Cc1ccccc1)[C@@H](CC(C)C)C(=O)OC`, 11.2%.
The result for `CCOc1ccc(N2C(=O)CC(Sc3nc(C)cc(C)c3C#N)C2=O)cc1` (stereo not drawn) reads 6.39%; that for `Cc1cc(C(C)(C)C)cc(C)c1N.Cl`, 8.95%.
The result for `CCOc1cc(CNS(=O)(=O)c2cn(C)cn2)cc(OCC)c1OCC` reads 19.1%.
